The IC50 is the concentration that gives 50% inhibition.

The values below come from the supplement of paper PMC4967469.

The IC50 comes from the fitted curve, where viability falls to half of the control; a limit (>, <) means that the fit lies beyond the doses tested. AUC, from the same fit, is the share of area under the viability curve across the 256-fold dose range; the more sensitive the line, the further below 1. A top dose marked as inferred comes from the curve model; the source does not state it. For some of these results: Where an entry number is given, a second screen of the drug exists; the two often differ.

Common to all, as to assay: Viability of human cancer cell lines after 72 h of drug (GDSC screen)
Compound in one assay: COc1cc(C(=O)NC2CCN(C)CC2)ccc1Nc1ncc2c(n1)N(C1CCCC1)CCC(=O)N2C(C)C [XMD11-85h]
The settings on record: top dose 10 µM; top dose inferred. On the procedure:
(§1)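 Human cancer cell lines in 384-well plates, medium with 10% serum, drug for 72 h over a 256-fold dose range (nine 2-fold or five 4-fold steps up to the top dose). Adherent lines were fixed and stained with the nucleic acid dye Syto60, suspension lines read with resazurin; signal relative to control wells, capped at 0 and 100%. One two-parameter sigmoid per drug and line, fitted in a mixed model over all curves with the slope shared within a line.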

Compound in a further assay: Cn1ncnc1[C@H]1c2n[nH]c(=O)c3cc(F)cc(c23)N[C@@H]1c1ccc(F)cc1 [BMN-673]
The settings on record: top dose 10 µM; top dose inferred. On the procedure:
as §1

Compound in the next assay: Cc1cc([C@@H](C)Nc2ccccc2C(=O)O)c2nc(N3CCOCC3)cc(=O)n2c1 [AZD6482]
As to the method:
as §1

Compound in a further assay: NS(=O)(=O)OC[C@@H]1C[C@@H](n2ccc3c(N[C@H]4CCc5ccccc54)ncnc32)C[C@@H]1O [MLN4924]
As to conditions: top dose 1 µM; top dose inferred. On the procedure:
as §1

Where [1] appears, read: top dose 5 µM, screen: GDSC drug entry 1066, top dose inferred.
Where [2] appears, read: top dose 5.12 µM, screen: GDSC drug entry 156.

For SW1710 (bladder, adherent), the AUC with XMD11-85h was 0.933; in the assay with BMN-673 it was 0.854; with AZD6482 (setting [1]), 0.671; with AZD6482 (setting [2]), 0.581; with MLN4924, 0.916. Besides, the IC50 with XMD11-85h is more than 10 µM; with BMN-673, 8.31 µM; in the assay with AZD6482 (setting [1]), 0.949 µM; with AZD6482 (setting [2]), 0.538 µM; with MLN4924 it was more than 1 µM.

For the cell line T-24 (bladder, adherent), the AUC in the assay with XMD11-85h is 0.986; with BMN-673 it was 0.47; with AZD6482 (setting [1]) it was 0.886; in the assay with AZD6482 (setting [2]), 0.939; with MLN4924, 0.754. Further, the IC50 was more than 10 µM with XMD11-85h; 0.518 µM in the assay with BMN-673; more than 5 µM with AZD6482 (setting [1]); more than 5.12 µM with AZD6482 (setting [2]); 0.322 µM with MLN4924.

With TE-1 (oesophagus, adherent), the AUC was 0.949 with XMD11-85h; 0.928 in the assay with BMN-673; 0.863 in the assay with AZD6482 (setting [1]); 0.888 with AZD6482 (setting [2]); 0.858 with MLN4924. In addition, the IC50 with XMD11-85h is more than 10 µM; with BMN-673 it was more than 10 µM; in the assay with AZD6482 (setting [1]) it was more than 5 µM; with AZD6482 (setting [2]), more than 5.12 µM; in the assay with MLN4924 it was more than 1 µM.

As for TE-5 (oesophagus, adherent), the AUC with XMD11-85h was found to be 0.965; with BMN-673 it was 0.722; with AZD6482 (setting [1]), 0.925; with AZD6482 (setting [2]), 0.936; in the assay with MLN4924, 0.781. Also, the IC50 is more than 10 µM with XMD11-85h; 2.96 µM in the assay with BMN-673; more than 5 µM with AZD6482 (setting [1]); more than 5.12 µM with AZD6482 (setting [2]); 0.481 µM in the assay with MLN4924.

For TE-8 (oesophagus, adherent), the AUC turned out to be 0.953 with XMD11-85h; 0.692 with BMN-673; 0.885 in the assay with AZD6482 (setting [1]); 0.966 with AZD6482 (setting [2]); 0.9 with MLN4924. Also, the IC50 in the assay with XMD11-85h was more than 10 µM; with BMN-673, 2.26 µM; in the assay with AZD6482 (setting [1]) it was more than 5 µM; in the assay with AZD6482 (setting [2]), more than 5.12 µM; with MLN4924, more than 1 µM.

Regarding TE-9 (oesophagus, adherent), the AUC in the assay with XMD11-85h stood at 0.979; in the assay with BMN-673, 0.799; with AZD6482 (setting [1]), 0.901; with AZD6482 (setting [2]), 0.903; with MLN4924, 0.892. The half-maximal inhibitory concentration (IC50) with XMD11-85h was more than 10 µM; with BMN-673 it was 5.01 µM; in the assay with AZD6482 (setting [1]), more than 5 µM; in the assay with AZD6482 (setting [2]), more than 5.12 µM; with MLN4924, more than 1 µM.

For the cell line TE-10 (oesophagus, adherent), the AUC in the assay with XMD11-85h stood at 0.934; with BMN-673 it was 0.859; with AZD6482 (setting [1]), 0.916; with AZD6482 (setting [2]) it was 0.851; with MLN4924 it was 0.903. Besides, the IC50 in the assay with XMD11-85h is more than 10 µM; in the assay with BMN-673, 7.99 µM; in the assay with AZD6482 (setting [1]), more than 5 µM; with AZD6482 (setting [2]), 3.81 µM; with MLN4924 it was more than 1 µM.

Regarding TE-12 (oesophagus, suspension), the AUC in the assay with XMD11-85h came to 0.978; with BMN-673, 0.97; with AZD6482 (setting [1]), 0.945; with AZD6482 (setting [2]), 0.863; with MLN4924, 0.839. In addition, the IC50 was more than 10 µM with XMD11-85h; more than 10 µM with BMN-673; more than 5 µM in the assay with AZD6482 (setting [1]); more than 5.12 µM with AZD6482 (setting [2]); 0.902 µM with MLN4924.

Turning to TGW (neuroblastoma, adherent), the AUC with XMD11-85h is 0.991; with BMN-673 it was 0.971; with AZD6482 (setting [1]), 0.962; in the assay with AZD6482 (setting [2]), 0.989; in the assay with MLN4924, 0.967. Also, the IC50 with XMD11-85h was more than 10 µM; in the assay with BMN-673 it was more than 10 µM; in the assay with AZD6482 (setting [1]), more than 5 µM; with AZD6482 (setting [2]), more than 5.12 µM; with MLN4924 it was more than 1 µM.

Take TK (B-cell lymphoma, suspension): the AUC came out at 0.985 with XMD11-85h; 0.759 with BMN-673; 0.946 with AZD6482 (setting [1]); 0.938 in the assay with AZD6482 (setting [2]); 0.988 with MLN4924. Moreover, the IC50 in the assay with XMD11-85h is more than 10 µM; with BMN-673, 3.22 µM; with AZD6482 (setting [1]), more than 5 µM; in the assay with AZD6482 (setting [2]) it was more than 5.12 µM; with MLN4924 it was more than 1 µM.
